Hit rate of the full screen: of about 43,000 compounds, about 200 (0.47%) were called active. About 12% were inconclusive and are not listed. Calls follow the shape of the dose curve; as a rule, active = well fitted cell-killing curve with a large enough effect; inconclusive = small, poorly fitted or top-dose-only effect, or effect the other way; inactive = flat fitted curve, though single readings scatter. The list shows a part of the results.
Assay: Cell viability qHTS assay in S16 Pmp22-F2sN cells; also: nearly all actives have a fitted effect of over 65% in size
Conditions: S16 Pmp22-F2sN Schwann cells (luciferase reporters placed in the Pmp22 gene) viability, CellTiter-Glo, 24 h; series mostly up to 57.5 µM; activity change, negative = cytotoxicity: at the top concentration
How it was run: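 S16 Schwann cells carrying the Pmp22-F2sN reporter, seeded in 1536-well format, were exposed to library compounds for 24 h at 37C. Viability was read as CellTiter-Glo luminescence after 15 min at room temperature.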
% is scaled to controls: 0 for no effect and ±100 for the full control effect; potency is read from the fitted curve at half-maximal effect.

Row | Structure (SMILES) | activity change, negative = cytotoxicity | Potency
1 | CCc1ccc2ncc3c(-c4ccc(C)cc4)nn(CC(=O)Nc4ccc(C)cc4)c3c2c1 | inactive: 0.245% | 
2 | COc1ccc(Oc2nc3c(C)cccn3c(=O)c2/C=C(\C#N)c2nc3ccccc3[nH]2)cc1 | inactive: -2.95% | 
3 | Cc1cc(C)c(NC(=O)Cn2c(=O)n(-c3ccc(F)cc3)c(=O)c3c(C)c(C(=O)N(C)C)sc32)c(C)c1 | inactive: 7.34% | 
4 | COc1ccc(-n2c(=O)c3ccc(C(=O)NCc4ccc(C)cc4)cc3n(Cc3ccc(C)cc3)c2=O)cc1 | inactive: 5.23% | 
5 | Cc1ccccc1CNCCSc1nnnn1-c1ccccc1 | inactive: -6.6% | 
6 | Cc1ccc2c(c1)N(CC(=O)NCCCN1CCCCC1C)C(=O)c1cccnc1O2 (stereo not drawn) | inactive: 17% | 
7 | Cc1ccc2c(c1)N(S(=O)(=O)c1ccc3c(c1)NC(=O)CC(=O)N3)CCO2 | inactive: 1.26% | 
8 | Cc1ccc(-n2nc3c(=O)n(CC(=O)NCc4ccco4)nc(C)c3c2C)cc1 | inactive: -23.5% | 
9 | Cc1ccc(CNC(=O)CN(c2cc(C)cc(C)c2)S(=O)(=O)c2c(C)noc2C)cc1 | inactive: -1.82% | 
10 | Cc1nc2cc(-c3ccccc3)nn2c(C)c1CCC(=O)NCc1cccc(Cl)c1 | inactive: -14.4% | 
11 | COc1cc2[nH]c(=O)n(CCCCCC(=O)N3CCN(c4ccc(Cl)cc4)CC3)c(=O)c2cc1OC | inactive: -0.0709% | 
12 | Cc1cccc(Cn2c(=O)n(CC3CCC(C(=O)N4CCC(C)CC4)CC3)c(=O)c3sccc32)c1 (stereo not drawn) | inactive: -1.57% | 
13 | O=C(CSc1cn(CC(=O)N2CCCC2)c2ccccc12)Nc1ccccc1C(F)(F)F | inactive: -2.04% | 
14 | COC(=O)c1ccccc1NC(=O)c1ccc2c(Cl)c3c(nc2c1)CCCC3 | inactive: 9.46% | 
15 | COc1cc2nc(NCc3ccccc3)n3nc(-c4ccccc4)nc3c2cc1OC | inactive: 7.91% | 
16 | CCOC(=O)Cc1ccc(NC(=O)N2CC(C)Oc3ccc(Cl)cc32)cc1 (stereo not drawn) | inactive: -5.31% | 
17 | Cc1nc2ccn(Cc3cccs3)c(=O)c2cc1C(=O)N1CCN(c2ccccc2)CC1 | inactive: -5.05% | 
18 | Cc1cccc(Cn2cccc2CNS(=O)(=O)c2ccc(C)c(C)c2)c1 | inactive: 0.972% | 
19 | O=C(c1ccco1)n1nc(-c2ccc(Cl)cc2)nc1NCc1ccc(F)cc1 | inactive: 24.6% | 
20 | CCCCN(Cc1ccco1)C(=O)Cn1ncc2c([nH]c3ccccc32)c1=O | inactive: 0.788% | 
21 | Cc1ccc(-n2cnc3cc(C(=O)NCc4ccccc4Cl)ccc32)c(C)c1 | inactive: -22.9% | 
22 | COc1ccc(CC(=O)NCc2ccc3c(c2)CCN3C(=O)c2cccc(C)c2)cc1 | inactive: 1.67% | 
23 | Cc1nc(-n2nc(C)c(Cc3ccc4c(c3)OCO4)c2C)sc1C(=O)Nc1ccc(Cl)cc1 | inactive: -6.25% | 
24 | CCCOc1cccc(C2c3c(oc4ccc(F)cc4c3=O)C(=O)N2Cc2ccc3c(c2)OCO3)c1 (stereo not drawn) | inactive: 4.84% | 

Row | Structure (SMILES) | activity change, negative = cytotoxicity | Potency
25 | Clc1ccccc1Nc1ncnc2c1nc1n2CCCCC1 | inactive: 18.4% | 
26 | O=C(Nc1ccc2nc(SCCOc3ccccc3)sc2c1)c1ccc2c(c1)OCO2 | inactive: 3.21% | 
27 | COc1ccc(C2C(C(=O)Nc3ccccc3)=C(C)Nc3nc(-c4ccccc4Cl)nn32)cc1OC (stereo not drawn) | inactive: -15.4% | 
28 | CCOCCCNc1nc2cc(OC)c(OC)cc2c2nc(-c3ccccc3)nn12 | inactive: -5.83% | 
29 | CCOC(=O)c1scc(-c2ccc(C)cc2)c1S(=O)(=O)Nc1ccc(OC)c(Cl)c1 | inactive: 5.03% | 
30 | Cc1cccc(NS(=O)(=O)c2ccc3nc(-c4ccccc4)[nH]c3c2)c1C | inactive: -13% | 
31 | Cc1ccc(NC(=O)Cn2c(=O)n(CCC(=O)NCc3ccccc3Cl)c(=O)c3ccccc32)c(C)c1 | inactive: -16.5% | 
32 | Cc1ccc2c(c1)N(C(=O)Nc1cccc3c1CCCC3)CCO2 | inactive: 2.13% | 
33 | CCCN1CCN(C(=O)Cn2c(-c3cccs3)cc3cc(F)ccc32)CC1 | inactive: -1.31% | 
34 | O=C(NCCc1ccccc1)c1ccc(Nc2nc3ccccc3n3nnnc23)cc1 |  | active: 28.2 µM
35 | COc1ccc(CNC(=O)c2ccc(-c3nc(CSc4ccc(C)cc4)c(C)o3)cc2)c(OC)c1 | inactive: -2.33% | 
36 | CCOC(=O)c1c(NC(=O)CSc2cn(CCNC(=O)c3ccc(OC)cc3)c3ccccc23)sc2c1CCCC2 | inactive: 4.97% | 
37 | COc1ccc(C2c3c(n(C)c4ccccc34)C(=O)N2CC(=O)Nc2cccc(Cl)c2)cc1 (stereo not drawn) | inactive: 9.67% | 
38 | COc1ccccc1NC(=O)c1oc2ccccc2c1NC(=O)Cc1ccccc1 | inactive: -1.56% | 
39 | COc1ccc(-c2noc(CSc3nnc(C)n3-c3cccc(C)c3)n2)cc1 | inactive: -30.2% | 
40 | COc1cc(C(=O)NCCc2csc(-c3ccc(Cl)cc3)n2)cc(OC)c1OC | inactive: -8.09% | 
41 | COc1ccc(O)c(C2=Nc3ccccc3N=C(c3ccccc3)C2)c1 | inactive: 0.348% | 
42 | O=C(CN1C(=O)CC(c2ccccc2)=Nc2ccccc21)Nc1ccc(Br)cc1 | inactive: -14.1% | 
43 | CNC(=O)c1ccc2c(c1)N(Cc1cc(C)ccc1C)C(=O)c1ccccc1S2 | inactive: -26.2% | 
44 | Cn1nnc2c(N3CCN(c4ccc(F)cc4)CC3)ncnc21 | inactive: -1.19% | 
45 | CCOc1cccc(CNC(=O)c2ccc(N3CCCC3)c(NC(=O)NCc3ccccc3)c2)c1 | inactive: -3.61% | 
46 | CCc1ccc(NCc2cc3ccc(OC)cc3n(CC(=O)Nc3c(C)cc(C)cc3C)c2=O)cc1 | inactive: 7.47% | 
47 | CC(C)Oc1ccc(C(=O)N(Cc2ccc(N(C)C)cc2)C2CCS(=O)(=O)C2)cc1 (stereo not drawn) | inactive: -2.68% | 
48 | CCc1ccc(CNC(=O)Cn2nc(-c3ccc(C)cc3)ccc2=O)cc1 | inactive: -16.7% | 

Row | Structure (SMILES) | activity change, negative = cytotoxicity | Potency
49 | COc1ccccc1N1CCN(C(=O)CCS(=O)(=O)c2ccc3c(c2)oc(=O)n3C)CC1 | inactive: -0.767% | 
50 | Fc1ccc(-n2ncc3c(Nc4ccc5c(c4)OCCO5)ncnc32)cc1 | inactive: 3.2% | 
51 | Cc1ccc(N2CCN(C(=O)c3cc4cc5ccc(C)cc5nc4s3)CC2C)cc1 (stereo not drawn) | inactive: 0.347% | 
52 | Cc1ccc(Nc2sc(C(=O)c3ccccc3)c(N)c2S(=O)(=O)c2ccccc2)cc1Cl | inactive: -21.4% | 
53 | Cc1ccc(C)c(NC(=O)Cn2cc(S(=O)(=O)Cc3cccc(Cl)c3)c3ccccc32)c1 | inactive: 0.78% | 
54 | CCc1ccc(NC(=O)CN2C(=O)CSc3ccc(S(=O)(=O)N(C)C)cc32)cc1 | inactive: 1.49% | 
55 | Cc1cc(OC(C)C(=O)N(Cc2ccc(N(C)C)cc2)Cc2ccco2)ccc1Cl (stereo not drawn) | inactive: -1.44% | 
56 | Cc1ccccc1C(=O)Nc1cccc(OCc2cc(=O)n3cccc(C)c3n2)c1 | inactive: -3.94% | 
57 | CCn1cc(C(=O)NCCc2ccc(OC)c(OC)c2)c(=O)c2cc(S(=O)(=O)N(C)C3CCCCC3)ccc21 | inactive: -25.1% | 
58 | COc1ccc(-c2noc(CN(C(=O)C(C)Oc3ccc(C)cc3)C(C)C)n2)cc1 (stereo not drawn) | inactive: -19.1% | 
59 | COc1ccc2cc3c(N)nn(C(=O)c4ccccc4Cl)c3nc2c1 | inactive: -19.3% | 
60 | CCOc1ccc(NC(=O)N2CCN(c3ccc(Cl)c(Cl)c3)CC2)cc1 | inactive: -20.5% | 
61 | O=C(NCc1ccccc1)c1ccc2c(c1)CCN2S(=O)(=O)c1ccc(Cl)cc1 | inactive: 0.159% | 
62 | COc1cc(OC)cc(-c2nc3nc(C)c(CCC(=O)Nc4ccc(C)cc4C)c(C)n3n2)c1 | inactive: 0.715% | 
63 | O=S(=O)(c1ccccc1)c1nnn2c1nc(NCc1ccc(Cl)cc1)c1sccc12 | inactive: 11.1% | 
64 | CCN(CC)S(=O)(=O)c1ccc(C(=O)Nc2nc3ccc(Cl)cc3s2)cc1 | inactive: 27.5% | 
65 | O=C1CCc2cc(S(=O)(=O)NCc3ccccc3Cl)cc3c2N1CC3 | inactive: 28% | 
66 | O=C(c1cnn(-c2ccc(F)cc2)c1-n1cccc1)N1CCN(c2ccc(Cl)cc2)CC1 | inactive: -1.65% | 
67 | COc1ccccc1NC(=O)Cn1c(=O)c(CNc2ccccc2)cc2cc(OC)c(OC)cc21 | inactive: -6.21% | 
68 | Cc1cccc(CNC(=O)c2ccc3c(c2)c(C)c(C)n3Cc2ccccc2)c1 | inactive: -9.3% | 
69 | COc1ccccc1C1C=C(c2ccc(C(C)C)cc2)Nc2nnnn21 (stereo not drawn) | inactive: 7.61% | 
70 | Cc1cc(C)cc(OCc2cc(=O)n3c(-c4ccccc4)csc3n2)c1 | inactive: 9.43% | 
71 | Cc1ccc(S(=O)(=O)c2nnn3c2nc(NCc2cccs2)c2sccc23)cc1 | inactive: 13.3% | 
72 | CCn1nc(C)c2c(-c3ccccc3)cc(=O)n(C(C)C(=O)NCc3ccccc3OC)c21 (stereo not drawn) | inactive: -0.427% | 

Row | Structure (SMILES) | activity change, negative = cytotoxicity | Potency
73 | COc1cccc(NC(=O)Cn2cc(S(=O)(=O)Cc3ccccc3F)c3ccccc32)c1 | inactive: -17.2% | 
74 | O=C(CCn1ccc2cc(S(=O)(=O)N3CCCC3)ccc21)NCc1ccccc1F | inactive: -6.74% | 
75 | COC(=O)c1cc(NC(=O)c2cc3sccc3n2Cc2ccc(Cl)cc2)cc(C(=O)OC)c1 | inactive: 9.38% | 
76 | COc1cccc(NC(=O)c2oc3ccccc3c2NC(=O)C2CCCCC2)c1 | inactive: -7.88% | 
77 | CCc1ccccc1NC(=O)CCCN1C(=O)CCn2nc(-c3cn(C)c4ccccc34)cc21 | inactive: 14.4% | 
78 | COc1cc(Nc2nc(SCc3ccccc3Cl)nc3ccccc23)cc(OC)c1 | inactive: -29% | 
79 | COc1ccc(C(=O)/C=C/c2cn(CC(O)CN3CCc4ccccc43)c3ccccc23)cc1 (stereo not drawn) | inactive: 25.2% | 
80 | O=C1NC(NS(=O)(=O)c2ccccc2)(C(F)(F)F)C(=O)N1c1ccc(F)cc1 (stereo not drawn) | inactive: -1.65% | 
81 | Cc1cc(N2CCC(C(=O)N(CC(C)C)CC(C)C)CC2)n2nc(C)c(-c3ccc(Cl)cc3)c2n1 | inactive: 5.6% | 
82 | O=C(NCc1ccc(Cl)cc1)c1ccc(Cn2c(=O)c3cccn3c3cccnc32)cc1 | inactive: 1.9% | 
83 | COCCCNC(=O)c1ccc2c(c1)N(Cc1ccccc1F)C(=O)c1ccccc1S2=O (stereo not drawn) | inactive: 11.7% | 
84 | COc1ccc(-c2nnc(SCC(=O)Nc3ccc(C)c(C)c3)s2)cc1 | inactive: 0.748% | 
85 | CCOc1ccc(N2C(=O)c3[nH]nc(-c4ccc(OC)cc4)c3C2c2cccs2)cc1 (stereo not drawn) | inactive: -7.87% | 
86 | COc1ccc(S(=O)(=O)N2CCN(Cc3nc4ccc(C)cc4o3)CC2)cc1 | inactive: -5.86% | 
87 | COc1ccc(-c2c(C)c3ccc(O)c(CN4CCCC(C)C4)c3oc2=O)cc1OC (stereo not drawn) | inactive: -14.7% | 
88 | O=C1CCc2cc(S(=O)(=O)NC(C(=O)Nc3cccc(F)c3)c3ccccc3)ccc2N1 (stereo not drawn) | inactive: 1.52% | 
89 | CCc1ccc(S(=O)(=O)c2cn(C)c3cc(N4CCCC4)c(F)cc3c2=O)cc1 | inactive: 2.22% | 
90 | COc1ccc(C(=O)Nc2ccc3c(c2)CCCN3S(=O)(=O)c2ccc(C)cc2)c(OC)c1 | inactive: -7.04% | 
91 | Cc1cc(C)cc(C(=O)NCC(c2ccc(N(C)C)cc2)N2CCCC2)c1 (stereo not drawn) | inactive: 6.09% | 
92 | CN(Cc1ccccc1)c1ccc(-c2nc(-c3ccncc3)no2)cc1[N+](=O)[O-] | inactive: -24.6% | 
93 | CCOC(=O)CC(NC(=O)CCc1c(C)nc2ncnn2c1C)c1ccc(C)cc1 (stereo not drawn) | inactive: -10% | 

Source: PubChem BioAssay AID1508642 (National Center for Advancing Translational Sciences (NCATS), 2021)
